Laboratory results taken from the supplement of paper PMC11417369.
± gives the standard deviation of the averaged measurements. The list shows a part of the results.

Test system: PfAP2-EXP AP2 domain (GST-tagged)
Assay: gcPBM binding intensity (ln(normalized median fluorescence intensity)); higher = stronger DNA binding
Method in brief: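 GST-fused DNA-binding domains of P. falciparum, expressed in E. coli, were applied at about 25 μg on average for 1 h to an Agilent 4 × 180k array of primer-extended double-stranded 36-bp intergenic genomic probes and negative controls. Binding intensity is the highest Masliner-normalised natural-log median intensity across replicate spots of either probe orientation, measured with Alexa488 anti-GST antibody and a 488 nm scan.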

Sequence | gcPBM binding intensity (ln)
TAAATCTATATCATCACACACACATACATAAATATA [CACACA_site6228] | 8.6 ± 0.61
TGGATGTTAATATAGTGTACATTTATAAGTCAGTAT [XGTACX_site2949] | 8.66 ± 0.35
GTGGAAAAAAATAATTGTACACAATAATAAATATAT [XGTACX_site2414] | 8.58 ± 0.28
ATGTAATATATGCGGAAATATATTCACAAGACGTCA [CACACA_negctrl_site373] | 8.63 ± 0.68
GTCAAAAGTTTTTAAGGTACACTTATTTTATTATAA [XGTACX_site7004] | 8.47 ± 0.26
GAAAAAAAATCCAAGATGCACTATTATTACAAAAAT [GTGCAC_site9516] | 8.69 ± 0.33
ACCTTTATTGTATGAACACACATAAGCTGATACATC [CACACA_site4028] | 9.04 ± 0.44
CACTAAACATATACACGTACATGCAACGGATTTTTT [XGTACX_site461] | 8.74 ± 0.3
AACGAACACTATTACACACATACATACATATGTATG [CACACA_site1859] | 8.74 ± 0.46
TTGTTTATTTGTAAAGCTAACAAGAAATGTGAATAT [CACACA_negctrl_site931] | 8.64 ± 0.42
TATACATAAAAATGATGTACATATAATATATATATA [XGTACX_site3863] | 9.37 ± 0.2
TTATTATTATAAAATTGTACTTGGTATATTAACATA [XGTACX_site5829] | 8.15 ± 0.3
TATATAATTATTTATTGTACACTCAAATCGATAAGG [XGTACX_site3216] | 8.73 ± 0.31
ATATAAATATATTTTACACACAATGGAGAAAAAAAT [CACACA_site6450] | 8.78 ± 0.56
GGATTAATATATTTACCACACACCCATTTCGATTTT [CACACA_site9200] | 8.8 ± 0.49
ATCTTGAAGATTATTTGTACACAAAAGTTAAAATAT [XGTACX_site242] | 8.36 ± 0.29
TATTTATAAATATAAACACACAACATTCTATGCATA [CACACA_site3243] | 8.45 ± 0.52
AATGTATTATGTCTTCGTACACATAAATAAATAAAT [XGTACX_site4004] | 8.51 ± 0.37
TAAAGGAAATAAAAAACATGCAAATATGAAATATAT [TGCATGCA_site745] | 8.91 ± 0.35
AATTATAAATTGGACACACACATAAAAAATATGTAC [CACACA_site221] | 8.6 ± 0.39
TAAAAAAAAACATGTGCACACGTTTTATCTACATAA [CACACA_site2336] | 8.46 ± 0.23
ATACATAATAACTCCTGTACTTAAAAATGTATATAT [XGTACX_site1071] | 8.51 ± 0.31

Sequence | gcPBM binding intensity (ln)
TTACATATTATACGAAGTACGTACAAATACTTATAT [XGTACX_site8598] | 8.6 ± 0.26
TTGCATTGTCCATGCGCACACACTACTAGAATAATA [CACACA_site3678] | 8.56 ± 0.36
TTTTTTTTTTTTTTTTTTAAACACCTCAAAAAAAAA [CACACA_negctrl_site807] | 8.04 ± 0.36
ACCTTATTTAGTTATAGTACACAAAGTATTAAACAT [XGTACX_site8418] | 9.57 ± 0.64
TTTTTTTTTTTCTTCACACACAGTACTACTATTTAT [CACACA_site2409] | 8.79 ± 0.45
GCGAATAATATGGACATACACACATATACATACATA [CACACA_site2115] | 8.88 ± 0.43
TATATATATTTTTGTGTGCACTATAATATGAAAATA | 9.22 ± 0.38
TCATTTATTGAGGAATGTACACGTAAAATTTAATAA [XGTACX_site4086] | 8.88 ± 0.33
TTTTTTTTTTTTTTATGTACATATATATATTTTATT [XGTACX_site6915] | 8.61 ± 0.6
ATTTTTTTTTTTTTTTTCTTTTTTCTTCTTTTTTTT [CACACA_negctrl_site1223] | 8.31 ± 0.58
ATATATATTATAAAATGTACAAATGTTATATAAAAT [XGTACX_site4750] | 8.85 ± 0.45
TATAATGTTGATAATAGTACGTATGAGTTCAAAAAA [XGTACX_site988] | 8.64 ± 0.46
AAATAGAGAAATACAAGTACATACTAAACCAATCTA [XGTACX_site2780] | 8.64 ± 0.48
TTCTTTGTAGTATATTAACACACAACTGTTTATAAT [CACACA_site9305] | 8.64 ± 0.38
CAAATCAAAATTAATTAACACACAATTTTAATATTC [CACACA_site8641] | 8.22 ± 0.4
AAAGGATATAATACCATACACACATTTATAAAATAA [CACACA_site1931] | 8.69 ± 0.29
AAAAGAAAATATATGTGTACTAAAATATATATATAT [XGTACX_site3817] | 9.99 ± 0.29
ACTTTTATTCGCTTACGTACATATATTATATATTAT [XGTACX_site4459] | 9.49 ± 0.68
TACCTACACTTTTGGAGTACAATTAAAAAAAAAAAA [XGTACX_site1403] | 8.31 ± 0.38
TTTAAAGTAATAAAGTGTACAAAAATAAATTCAGCT [XGTACX_site8651] | 9.03 ± 0.54
GTTTATTAAACATTAGTGCAATTTTAATCCATTCTA | 8.27 ± 0.29
TTAATCCTTTTTAAAAGTACACATATATATATATAT [XGTACX_site962] | 10.2 ± 0.38

Sequence | gcPBM binding intensity (ln)
TATATATATATATAATGTACAGAAAAAAAAAAAAAA [XGTACX_site6141] | 9.95 ± 0.17
ATATTATATATTTGATGTACATTGAATGAGAGAGAA [XGTACX_site3324] | 9.08 ± 0.2
AAATCATGTTGAAGGGGTACAAAATATGTAATGTTG [XGTACX_site6222] | 8.77 ± 0.36
ATAATAAATGATAGCACACATATGTACATAAATACA [CACACA_site4634] | 8.93 ± 0.33
AACATATAAAAATGTGCACACACACCCATATATATA [CACACA_site1525] | 8.79 ± 0.15
TATCTTAACAATTAGTGTACAGATAACCAATTAAAA [XGTACX_site3184] | 8.32 ± 0.42
CTTTGTGGTATAGATACACACTATATTAAGATGAAC [CACACA_site5215] | 8.34 ± 0.41
TAAAATAAAAATATAGTGCACAGATTTTGATATTTT [GTGCAC_site9696] | 8.69 ± 0.092
CACATTATGTATCATACACACAAATAGATATATAAC [CACACA_site6434] | 8.72 ± 0.38
TGAAGGTTTCAAAAACGTACAAAAAAAAATGTTAGT [XGTACX_site8803] | 8.78 ± 0.55
TTTAGAAATAAATACACACATACATTTTTGTATACA [CACACA_site718] | 8.21 ± 0.38
TTTTTTTTTTATGGTACACACACGCGTATGGTTGCA [CACACA_site1876] | 8.71 ± 0.42
TGAAAAAAAAAATGCACACGCATACAGATAATATGT [CACACA_site4526] | 8.78 ± 0.48
AATAATAATAGAAACACACACACATTTTTAAGAATA [CACACA_site6692] | 8.62 ± 0.56
ATTATTGCAATTTAATGTACATAATACAAATTTGCC [XGTACX_site2729] | 8.87 ± 0.37
AATGAATAAATAAACACACACACATATATATATATG [CACACA_site18] | 8.84 ± 0.46
TATATTCAAAAAAATTCATTTCTGATTTTTTTTTTT [CACACA_negctrl_site1085] | 8.1 ± 0.55
TATACGTATACCTATACACACATATATATATATATA [CACACA_site1273] | 9.97 ± 0.42
GATGAAATATCATTACGTACACAATAGTTTGTATTT [XGTACX_site5143] | 8.47 ± 0.26
CTTGTGCTTTATAGGGTGCACATTTTGTTTTGGTAA [GTGCAC_site9899] | 9.73 ± 1
TGAACACATACATACACACACACAAAAAAAAAAAAA [CACACA_site392] | 8.27 ± 0.59
TTATTAATTATATATAGTACACATTTCACAGATGGG [XGTACX_site2349] | 8.61 ± 0.33

Sequence | gcPBM binding intensity (ln)
TTTTTTTTTTTTTTTGGTACACATTTTGGTTAATGG [XGTACX_site5109] | 7.895 ± 0.064
AAAATTATGCAGTAGGTGCAATACCCTCGGCTTTTT [GTGCAC_site9556] | 8.59 ± 0.19
ATAAAAAGGTTTAAAAAAAAAAAAAAAAAAAAAAAA [CACACA_negctrl_site412] | 7.96 ± 0.38
AATAATAATTTAAAAAGTACATTCTAATAAACACGT [XGTACX_site1444] | 8.72 ± 0.42
TACTTATTTGATTGGGTGCATATATATAGTATGTAT [GTGCAC_site9845] | 8.97 ± 0.11
AATATCTGAAAATAAAGTACAAACATATTATAAATA [XGTACX_site5738] | 8.57 ± 0.33
TATTTCAAATGTTATGTGCACATATTAATCCTACTT [GTGCAC_site9738] | 8.71 ± 0.32
AAATAAAATAAAATAAAATAAAATAAAATAAAATAA [XGTACX_negctrl_site142] | 8.49 ± 0.28
AAAAAAAAACACGCATGTACATAAAAATAATCATAC [XGTACX_site1086] | 8.96 ± 0.3
TTATTTATGAGGGTGACACACAAAAGAGTGTTAAGA [CACACA_site277] | 8.44 ± 0.36
TTATGGAAAAATATAACACACAATGATTTTTTATAA [CACACA_site1831] | 8.26 ± 0.35
ATTTATATAAAATTAAAATAATACAAATTTATTCAT [GTGCAC_negctrl_site305] | 8.12 ± 0.46
TTTTCGCTTTTATAAAATTATATGAAAAAACTAAAA [XGTACX_negctrl_site139] | 8.22 ± 0.47
CCACTAAAGGCATATACACACATTTTTTAAATTGCC [CACACA_site2839] | 8.67 ± 0.47
TACACAAAAATAAACACACACACATATAAATAAATA [CACACA_site6599] | 8.67 ± 0.52
TATTGTAAAAAAGCAAAATTTATCACCTCCTTATTT [CACACA_negctrl_site172] | 8.23 ± 0.4
TATAACTATGGGTGTACACATTAATCGTTTTTCTTT [CACACA_site5196] | 8.58 ± 0.3
TGTAATACATGTTGTTGTACAATATCTTTAACTTTT [XGTACX_site1219] | 8.62 ± 0.38
TTTTTTACATTCTGCACACAATTTATTTTTTTTTTT [CACACA_site4188] | 8.8 ± 0.34
ATGAATGAATACGTTTTACACACTTGAATATAATTT [CACACA_site8237] | 8.53 ± 0.4
AACATAACAAAAAAAAAAAAAAATATATATATATAT [TGCATGCA_negctrl_site370] | 10.2 ± 0.41
TATTTCACAAAAAAAAAAAAAAAAAAGAAGCAAAAA [CACACA_negctrl_site1040] | 8.32 ± 0.47
